# Laboratory results reported in PubChem BioAssay (NCATS).
# Where “and” joins values, the source holds several entries; their conditions need not be identical. Equal entries are not always repeated. Inconclusive means that the source gave no clear call. Such entries were picked first, then a sample of the others. For some assays here: Potencies beside an inconclusive call are fits to weak or partial responses and may not hold up. Calls of active or inactive are those of the source. Unless noted, calls follow the shape of the dose curve; as a rule, active = well fitted curve in the direction sought with a large enough effect; inconclusive = small, poorly fitted or top-dose-only effect, or another doubt; inactive = no such curve, though single readings can be large; an effect the other way counts as inactive or inconclusive.
# How the values were obtained:
# [1] = AP1 Signaling Pathway (AID 357; active = well fitted curve in either direction with a large enough effect, not every such curve was filed as active; inconclusive = small, poorly fitted or top-dose-only effect, or another doubt;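 also: ME-180 reporter cells stimulated with EGF at its EC50 level; top concentration of the series differs between compounds; % is scaled to controls: 0 for no effect and ±100 for the full control effect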); settings: ME-180 (cervical carcinoma) AP-1-bla reporter, EGF-induced, beta-lactamase ratio, 5 h; at 17.2 µM (top of the series)
# Method in brief: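 First, ME-180 AP-1-bla cells were cultured overnight at 37 °C in low-serum Opti-MEM. Next, titrated compounds with EC50 EGF were incubated 5 hours. Finally, CCF4 was added for 2.5 hours and the 460/530 nm ratio recorded.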
# [2] = target: 3',5'-cyclic-AMP phosphodiesterase 4B (Homo sapiens) (UniProt Q07343); assay: qHTS Assay for Inhibitors of PDE-IV (AID 607; active = well fitted activation curve with a large enough effect in the main read-out, with a control signal flat, not every such curve was filed as active; inconclusive = small, poorly fitted or top-dose-only effect, or effect the other way, or a change in a side signal; also: potency is read from the fitted curve at half-maximal effect); settings: HEK293 ACTOne CNG channel cells, membrane potential fluorescence; activation (PDE inhibition): at 22.9 µM (top of the series)
# Method in brief: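 Cell-based read-out of cAMP via a modified cyclic nucleotide-gated channel and membrane potential dye (535/590 nm) in HEK293 cells expressing PDE4 endogenously. Compounds tested up to 22.9 uM final; 100 uM RO 20-1724 reference.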
# [3] = qHTS Assay for Identification of Small Molecule Agonists for Thrombopoietin (TPO) Signaling Pathway (AID 917); settings: TPO signaling pathway reporter cells, agonist qHTS, stimulated with TPO at its EC50; series mostly up to 38.5 µM; also: % is scaled to controls: 0 for no effect and ±100 for the full control effect
# Method in brief: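 First, Ba/F3 cells with human TPO receptor were held overnight without IL-3. Next, compounds and TPO (26 pM final) were added. After 24 hrs at 37 C, luciferase detection reagent was added and luminescence measured following 10 min at room temperature.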
# [4] = target: Chromobox protein homolog 1 (Homo sapiens) (UniProt P83916); assay: qHTS Validation Assay for Inhibitors of HP1-beta Chromodomain Interactions with Methylated Histone Tails (AID 488953); settings: HP1-beta chromodomain / methylated histone peptide binding assay; series mostly up to 114 µM;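 also: loss of AlphaScreen luminescence from HP1-beta binding biotinylated H3K9me3 peptide; % is scaled to controls: 0 for no effect and ±100 for the full control effect; nearly all actives have a fitted effect of over 50% in size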
# Method in brief: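 AlphaScreen proximity signal from streptavidin donor and nickel chelate acceptor beads (final 10 ug/mL) after 30 min dark incubation. Compounds had 30 min at room temperature with preformed complex of 50 nM HP1-beta and 50 nM b-H3(1-18)K9me3 in PBS pH 7.4 with 0.01% Tween-20.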
# [5] = target: Atrial natriuretic peptide receptor 1 (Homo sapiens) (UniProt P16066); assay: Natriuretic polypeptide receptor (hNpr1) antagonism - Pilot screen (AID 1347049; calls by dose curve;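 also: agonist-evoked cGMP luminescence read 20 min after hNppA addition; % is scaled to controls: 0 for no effect and ±100 for the full control effect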); settings: hNpr1 cells, antagonist mode cGMP read-out; series mostly up to 57.5 µM
# Method in brief: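 cGMP-sensor HEK293/hNpr1 cells, 1500/well, plated overnight at 37C. 2% GloSensor reagent, 2 h RT. Compound (23 nL pin transfer) 30 min RT, baseline luminescence pre-read. 0.1 nM hNppA, 20 min RT, post-read.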
# [6] = target: Lysine-specific demethylase 5B (Homo sapiens) (UniProt Q9UGL1); assay: Optimization screen for KDM5B Histone Demethylases FDH coupled qHTS against the LOPAC library (AID 1347166); settings: KDM5B demethylation, FDH-coupled NADH fluorescence (FDH is formaldehyde dehydrogenase); activity, negative = inhibition: at 57.5 µM (top of the series) unless noted; also: 0% is about no effect
# Method in brief: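 KDM5BDeltaAP (200nM final) in 50mM HEPES pH 7.5, 0.01% Tween-20 was preincubated with compound for 10 min at room temperature. A substrate mix of 12.5uM H3K4Me3, 25uM a-ketoglutarate, ascorbate, Fe2+, NAD+ and formaldehyde dehydrogenase was then added. NADH fluorescence (340/450 nm) was read initially and after 30 min.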
# [7] = qHTS to identify inhibitors of the type 1 interferon - major histocompatibility complex class I in skeletal muscle: primary screen against the NCATS LOPAC collection (AID 1347405); settings: iHSKM muscle cells, IFN-b-induced MHC-I HiBiT luminescence, 24 h; activity change, negative = inhibition: at 45.9 µM (top of the series);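 also: lytic HiBiT luminescence reporting HLA-B protein level; % is scaled to controls: 0 for no effect and ±100 for the full control effect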
# Method in brief: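 After 24 h at 37 C with compounds (7-point, 1:4.3 dilutions, 46 uM top final) plus 4 ng/ml IFN-beta, luminescence from lytic HiBiT detection was measured. HLA-B*08:01 in C25cl48 myoblasts carried an endogenous C-terminal HiBiT tag; medium lacked dexamethasone.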
# [8] = NS1 protein of Zika virus - qHTS assay to identify small molecule inhibitors in human HEK 293 cells (AID 1347053); settings: HEK293 ZIKV MR766 infection, NS1 TR-FRET, 24 h; series mostly up to 46.1 µM;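 also: plate controls were infected untreated cells for no effect and uninfected cells for full effect; nearly all actives have a fitted effect of over 55% in size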
# Method in brief: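 Read-out is a two-antibody TR-FRET for ZIKV NS1, normalized between uninfected cells and infected cells. Compound added 1 h before MR766 infection at MOI 0.5; human HEK 293 cells incubated 24 h, 37 C.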
# CP252 = assay: qHTS profiling for inhibitors of Plasmodium falciparum proliferation (AID 504749); also: nearly all actives have a fitted effect of over 60% in size; also: potency is read from the fitted curve at half-maximal effect;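 as to activity, negative = inhibition: 0% = DMSO vehicle and full inhibition = artemisinin control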; settings: P. falciparum in erythrocytes, SYBR Green DNA, 72 h; series mostly up to 28.7 µM
# Method in brief: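 Each compound contacts P. falciparum-infected red blood cells for 72 h at 37 C; lysis buffer (Tris, EDTA, saponin, Triton X, SYBR Green I) is added and fluorescence measured next morning; values normalized to controls.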
# [9] = target: Muscarinic acetylcholine receptor M1 (Rattus norvegicus) (UniProt P08482); assay: qHTS Assay for Antagonists of Acetylcholine Muscarinic M1 Receptor: Measurement of IP-One Response (AID 944); settings: CHO-M1 cells, IP-One HTRF, antagonist mode; series mostly up to 46.1 µM; also: nearly all actives have a fitted effect of over 75% in size; also: potency is read from the fitted curve at half-maximal effect
# [10] = target: Endonuclease 4 (Escherichia coli (strain K12)) (UniProt P0A6C1); assay: Counterscreen for APE1 Inhibitors: qHTS Validation Assay for Inhibitors of Endonuclease IV (AID 1708); also: potency is read from the fitted curve at half-maximal effect; settings: E. coli endonuclease IV, DNA cleavage fluorescence; series mostly up to 57.1 µM
# Method in brief: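 Conditions: 2 nM enzyme, 50 nM TAMRA/BHQ-2 substrate, pH 7.5 Tris buffer with 2 mM MgCl2, RT. Compound preincubation 15 min; readout three fluorescence reads 60 s apart, third-minus-first.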
# [11] = qHTS for differential inhibitors of proliferation of Plasmodium falciparum line GB4 (AID 1816); settings: Potency: Plasmodium falciparum GB4 proliferation inhibition; series mostly up to 28.7 µM;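 also: parasite growth measured after 72 h incubation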; also: potency is read from the fitted curve at half-maximal effect;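 as to activity change, negative = inhibition: 0% = vehicle DMSO and -100% = reference inhibitor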
# [12] = Validation screen for small molecules that induce DNA re-replication in MCF 10A normal breast cells (AID 463097); settings: MCF 10A cells, DNA re-replication phenotype imaging; series mostly up to 46.1 µM; also: 0% is about no effect; nearly all actives have a fitted effect of over 60% in size
# Method in brief: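 Readout: Hoechst nuclear fluorescence intensity, 405 ex / 500-530 em, by scanning plate imager; re-replication scored as increase in nuclei with elevated DNA content. Cells exposed to compound 48 hr, 37 C, 5% CO2 beforehand.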
# [13] = Quantitative high throughput screen for delayed death inhibitors of the malarial parasite plastid, 96 hour incubation (AID 488745); settings: Plasmodium falciparum growth; series mostly up to 28.7 µM; also: potency is read from the fitted curve at half-maximal effect; nearly all actives have a fitted effect of over 70% in size
# Method in brief: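 Decreased firefly luciferase luminescence indicates inhibited growth of reporter-integrated P. falciparum after two generations (96 h, 37 C, 5% CO2). Infected erythrocytes at 0.1% parasitemia, 2% hematocrit, in Albumax-supplemented RPMI 1640.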
# [14] = qHTS to identify inhibitors of the type 1 interferon - major histocompatibility complex class I in skeletal muscle: primary screen against the NCATS Mechanism Interrogation Plate v5.0 (MIPE) Libary (AID 1347411); settings: iHSKM cells + IFN-b, HiBiT-tagged MHC-I luminescence, 24 h; activity change, negative = inhibition: at 45.8 µM (top of the series) unless noted; also: nearly all actives have a fitted effect of over 65% in size; also: potency is read from the fitted curve at half-maximal effect;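 as to activity change, negative = inhibition: plate controls were vehicle for no effect and reference inhibitor for full effect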
# Method in brief: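 Luminescence from CRISPR HiBit-tagged endogenous HLA-B in human myoblasts reported MHC class I level after 24 h of IFN-beta (4 ng/ml) plus compound. Compounds ran as 11-point 1:3 series, top 46 uM final.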
# [15] = target: N-terminal Xaa-Pro-Lys N-methyltransferase 1 (Homo sapiens) (UniProt Q9BV86); assay: Confirmatory qHTS for Inhibitors of N-terminal methyltransferase 1 (NTMT1): MTaseGlo Assay (AID 1645874); settings: NTMT1 enzyme, MTase-Glo SAH luminescence; series mostly up to 100 µM; also: potency is read from the fitted curve at half-maximal effect; nearly all actives have a fitted effect of over 65% in size
# Method in brief: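 MTase-Glo luminescence measured SAH formed by 125 nM NTMT1 from 100 uM SAM and 1 uM SPKRIA peptide over 30 min at room temperature, following 15 min compound preincubation. Percent inhibition against no-enzyme and DMSO controls gave 4-parameter Hill fits.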
# Furin (Homo sapiens) = Furin (Homo sapiens) (UniProt P09958); assay: Furin counterscreen qHTS for Zika virus inhibitors (AID 1347149); settings: furin enzymatic counterscreen, fluorogenic substrate; series mostly up to 57.5 µM; also: nearly all actives have a fitted effect of over 70% in size; also: potency is read from the fitted curve at half-maximal effect;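 as to activity change, negative = inhibition: purified recombinant full-length human furin enzyme at 5 nM; fluorescence gain from furin cutting a BOC-RVRR-AMC peptide substrate over 15 min; top concentration of the series differs between compounds; plate controls were no-inhibitor control for no effect and no-enzyme control for full effect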
# Method in brief: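 Counterscreen measures cleavage of 2 microM BOC-RVRR-AMC, below its ~15 microM Km, by 5 nM full-length human furin at pH 7.0 after a 15-min compound preincubation. Inhibition derives from the 15-min fluorescence increase at 37C.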
# [16] = tested on: Zika virus NS2B-NS3 protease (unlinked complex); assay: Confirmatory screen GU AMC qHTS for Zika virus inhibitors (AID 1347153); settings: Recombinant NS2B-NS3 protease, AMC substrate fluorescence; series mostly up to 57.1 µM;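 also: enzyme at 25 nM with substrate at 10 µM below its Km of 18.3 µM; potency is read from the fitted curve at half-maximal effect; nearly all actives have a fitted effect of over 70% in size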
# Method in brief: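 Compounds were preincubated 15 min at room temperature with 25 nM noncovalent NS2B-NS3 protease at pH 8.0; AMC substrate added at 10 microM and 15-min fluorescence gain (340/450 nm) converted to percent inhibition, fitted 4-parameter.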
# [17] = qHTS assay to identify small molecules that stimulate interleukin-8 (IL-8) secretion (AID 651758; active = well fitted activation curve with a large enough effect in the signal ratio; inconclusive = small, poorly fitted or top-dose-only effect, or effect the other way, or a change in a side signal; the % refers to the signal ratio; also: 0% is about no effect); settings: HTRF ratio (665/615); activation: at 92.2 µM (top of the series)
# Method in brief: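 Compounds are added to THP-1 cells (2000 per well) and left 16 hrs at 37 C. A labeled anti-IL-8 antibody pair is then added, and IL-8 secretion is measured by time-resolved FRET after 1-3 hrs at room temperature.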
# [18] = qHTS assay to identify inhibitors of the type 1 interferon - major histocompatibility complex class I in skeletal muscle: Counter screen cell viability and HiBit confirmation (AID 1347412); settings: iHSKM muscle cells + IFN-b, HiBiT or CellTiter-Glo, 24 h; also: potency is read from the fitted curve at half-maximal effect; nearly all actives have a fitted effect of over 60% in size
# Method in brief: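 HLA-B*08:01–HiBiT knock-in immortalized human myoblasts (C25cl48) stimulated with 4.0 ng/ml human IFN-beta and dosed with compound in a 12-point 1:3 titration (top final 46 uM). After 24 hrs at 37 C, HiBiT lytic luminescence or CellTiter Glo ATP read out.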
# Tags tell the direction and shape of the fitted curve.
# UniProt Q9BV86, sequence (Q9BV86 whole entry, looked up): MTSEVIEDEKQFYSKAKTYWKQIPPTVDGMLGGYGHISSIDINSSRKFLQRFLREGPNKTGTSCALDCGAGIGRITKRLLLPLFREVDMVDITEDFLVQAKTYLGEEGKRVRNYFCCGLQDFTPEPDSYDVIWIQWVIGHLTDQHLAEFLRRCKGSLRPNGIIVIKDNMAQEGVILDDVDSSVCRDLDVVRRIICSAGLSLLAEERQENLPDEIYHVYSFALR
# UniProt P09958, sequence (P09958 whole entry, looked up): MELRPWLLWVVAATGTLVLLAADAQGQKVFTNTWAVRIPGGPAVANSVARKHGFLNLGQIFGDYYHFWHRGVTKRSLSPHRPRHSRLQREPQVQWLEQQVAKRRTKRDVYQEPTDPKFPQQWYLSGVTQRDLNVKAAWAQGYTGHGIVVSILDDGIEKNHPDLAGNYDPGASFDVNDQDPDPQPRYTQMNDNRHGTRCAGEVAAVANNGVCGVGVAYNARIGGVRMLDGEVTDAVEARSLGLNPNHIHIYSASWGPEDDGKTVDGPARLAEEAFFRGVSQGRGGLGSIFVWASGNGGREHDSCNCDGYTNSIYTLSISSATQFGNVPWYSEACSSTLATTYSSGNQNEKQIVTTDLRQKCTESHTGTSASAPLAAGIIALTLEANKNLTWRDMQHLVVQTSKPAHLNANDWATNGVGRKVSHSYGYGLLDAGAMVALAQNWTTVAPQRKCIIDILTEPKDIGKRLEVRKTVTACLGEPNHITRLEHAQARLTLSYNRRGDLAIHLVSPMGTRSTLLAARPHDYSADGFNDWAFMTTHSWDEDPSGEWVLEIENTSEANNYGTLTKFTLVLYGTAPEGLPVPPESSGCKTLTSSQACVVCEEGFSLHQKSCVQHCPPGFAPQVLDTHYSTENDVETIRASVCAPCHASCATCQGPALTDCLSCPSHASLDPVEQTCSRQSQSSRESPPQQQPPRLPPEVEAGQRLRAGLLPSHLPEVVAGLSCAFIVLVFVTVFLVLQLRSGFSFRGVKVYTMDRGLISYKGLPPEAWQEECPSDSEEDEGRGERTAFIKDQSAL
# UniProt Q07343, sequence (Q07343 whole entry, looked up): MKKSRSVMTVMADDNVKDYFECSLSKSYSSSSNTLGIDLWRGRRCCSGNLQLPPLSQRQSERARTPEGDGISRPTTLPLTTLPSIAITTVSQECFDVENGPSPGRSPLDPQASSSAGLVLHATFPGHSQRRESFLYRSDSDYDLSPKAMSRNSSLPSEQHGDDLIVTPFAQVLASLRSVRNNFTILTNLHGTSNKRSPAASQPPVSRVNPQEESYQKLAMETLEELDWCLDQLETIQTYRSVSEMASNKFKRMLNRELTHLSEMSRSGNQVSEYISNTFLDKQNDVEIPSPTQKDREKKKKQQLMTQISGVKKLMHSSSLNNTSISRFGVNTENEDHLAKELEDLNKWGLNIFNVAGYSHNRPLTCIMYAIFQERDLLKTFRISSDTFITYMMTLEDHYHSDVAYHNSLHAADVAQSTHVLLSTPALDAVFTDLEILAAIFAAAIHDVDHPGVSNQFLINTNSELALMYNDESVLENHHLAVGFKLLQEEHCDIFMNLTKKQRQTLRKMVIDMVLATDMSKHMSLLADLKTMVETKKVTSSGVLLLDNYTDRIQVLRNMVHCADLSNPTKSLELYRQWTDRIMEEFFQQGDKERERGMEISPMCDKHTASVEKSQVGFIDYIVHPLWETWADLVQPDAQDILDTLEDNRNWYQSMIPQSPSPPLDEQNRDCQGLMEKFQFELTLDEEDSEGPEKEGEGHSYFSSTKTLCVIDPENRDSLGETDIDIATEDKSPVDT
# UniProt P08482, sequence (P08482 whole entry, looked up): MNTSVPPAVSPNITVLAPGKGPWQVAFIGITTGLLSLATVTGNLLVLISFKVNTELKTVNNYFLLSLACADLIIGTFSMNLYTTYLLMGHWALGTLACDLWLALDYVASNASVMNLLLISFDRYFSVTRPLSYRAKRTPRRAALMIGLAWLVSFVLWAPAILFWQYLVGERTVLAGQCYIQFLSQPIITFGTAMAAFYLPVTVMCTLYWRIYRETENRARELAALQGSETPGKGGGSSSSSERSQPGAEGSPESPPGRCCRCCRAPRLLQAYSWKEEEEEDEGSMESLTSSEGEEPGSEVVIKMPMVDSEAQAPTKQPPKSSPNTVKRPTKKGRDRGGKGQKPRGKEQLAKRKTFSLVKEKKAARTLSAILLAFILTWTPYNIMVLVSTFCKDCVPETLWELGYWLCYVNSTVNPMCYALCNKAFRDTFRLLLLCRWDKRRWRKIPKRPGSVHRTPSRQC
# UniProt P16066, sequence (P16066 whole entry, looked up): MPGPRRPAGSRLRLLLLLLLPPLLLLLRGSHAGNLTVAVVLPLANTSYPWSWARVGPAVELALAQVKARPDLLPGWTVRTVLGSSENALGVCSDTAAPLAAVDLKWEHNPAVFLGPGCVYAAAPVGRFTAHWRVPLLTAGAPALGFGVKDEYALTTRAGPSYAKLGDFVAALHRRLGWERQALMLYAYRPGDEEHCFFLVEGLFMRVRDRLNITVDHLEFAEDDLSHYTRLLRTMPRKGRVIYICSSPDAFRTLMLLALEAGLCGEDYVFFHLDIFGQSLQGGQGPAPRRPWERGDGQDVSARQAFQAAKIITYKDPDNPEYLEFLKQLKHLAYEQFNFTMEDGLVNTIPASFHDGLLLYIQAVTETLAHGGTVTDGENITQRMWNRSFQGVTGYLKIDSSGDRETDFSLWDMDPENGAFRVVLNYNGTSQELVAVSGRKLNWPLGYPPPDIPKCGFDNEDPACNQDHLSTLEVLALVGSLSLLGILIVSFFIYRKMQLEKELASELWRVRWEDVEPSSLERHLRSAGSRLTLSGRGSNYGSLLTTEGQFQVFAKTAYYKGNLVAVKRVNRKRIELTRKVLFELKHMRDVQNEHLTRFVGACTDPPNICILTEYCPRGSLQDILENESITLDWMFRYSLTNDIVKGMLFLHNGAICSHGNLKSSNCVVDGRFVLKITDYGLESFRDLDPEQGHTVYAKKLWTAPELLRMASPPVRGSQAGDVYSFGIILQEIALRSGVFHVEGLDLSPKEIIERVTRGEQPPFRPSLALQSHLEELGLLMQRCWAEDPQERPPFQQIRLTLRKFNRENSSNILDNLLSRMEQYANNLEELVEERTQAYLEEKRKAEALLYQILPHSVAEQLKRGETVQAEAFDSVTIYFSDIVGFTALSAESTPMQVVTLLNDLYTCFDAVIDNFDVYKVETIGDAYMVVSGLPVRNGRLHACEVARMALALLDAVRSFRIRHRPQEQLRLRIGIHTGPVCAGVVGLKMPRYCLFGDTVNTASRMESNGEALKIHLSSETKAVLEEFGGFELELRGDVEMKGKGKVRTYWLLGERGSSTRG
# UniProt Q9UGL1, sequence (Q9UGL1 whole entry, looked up): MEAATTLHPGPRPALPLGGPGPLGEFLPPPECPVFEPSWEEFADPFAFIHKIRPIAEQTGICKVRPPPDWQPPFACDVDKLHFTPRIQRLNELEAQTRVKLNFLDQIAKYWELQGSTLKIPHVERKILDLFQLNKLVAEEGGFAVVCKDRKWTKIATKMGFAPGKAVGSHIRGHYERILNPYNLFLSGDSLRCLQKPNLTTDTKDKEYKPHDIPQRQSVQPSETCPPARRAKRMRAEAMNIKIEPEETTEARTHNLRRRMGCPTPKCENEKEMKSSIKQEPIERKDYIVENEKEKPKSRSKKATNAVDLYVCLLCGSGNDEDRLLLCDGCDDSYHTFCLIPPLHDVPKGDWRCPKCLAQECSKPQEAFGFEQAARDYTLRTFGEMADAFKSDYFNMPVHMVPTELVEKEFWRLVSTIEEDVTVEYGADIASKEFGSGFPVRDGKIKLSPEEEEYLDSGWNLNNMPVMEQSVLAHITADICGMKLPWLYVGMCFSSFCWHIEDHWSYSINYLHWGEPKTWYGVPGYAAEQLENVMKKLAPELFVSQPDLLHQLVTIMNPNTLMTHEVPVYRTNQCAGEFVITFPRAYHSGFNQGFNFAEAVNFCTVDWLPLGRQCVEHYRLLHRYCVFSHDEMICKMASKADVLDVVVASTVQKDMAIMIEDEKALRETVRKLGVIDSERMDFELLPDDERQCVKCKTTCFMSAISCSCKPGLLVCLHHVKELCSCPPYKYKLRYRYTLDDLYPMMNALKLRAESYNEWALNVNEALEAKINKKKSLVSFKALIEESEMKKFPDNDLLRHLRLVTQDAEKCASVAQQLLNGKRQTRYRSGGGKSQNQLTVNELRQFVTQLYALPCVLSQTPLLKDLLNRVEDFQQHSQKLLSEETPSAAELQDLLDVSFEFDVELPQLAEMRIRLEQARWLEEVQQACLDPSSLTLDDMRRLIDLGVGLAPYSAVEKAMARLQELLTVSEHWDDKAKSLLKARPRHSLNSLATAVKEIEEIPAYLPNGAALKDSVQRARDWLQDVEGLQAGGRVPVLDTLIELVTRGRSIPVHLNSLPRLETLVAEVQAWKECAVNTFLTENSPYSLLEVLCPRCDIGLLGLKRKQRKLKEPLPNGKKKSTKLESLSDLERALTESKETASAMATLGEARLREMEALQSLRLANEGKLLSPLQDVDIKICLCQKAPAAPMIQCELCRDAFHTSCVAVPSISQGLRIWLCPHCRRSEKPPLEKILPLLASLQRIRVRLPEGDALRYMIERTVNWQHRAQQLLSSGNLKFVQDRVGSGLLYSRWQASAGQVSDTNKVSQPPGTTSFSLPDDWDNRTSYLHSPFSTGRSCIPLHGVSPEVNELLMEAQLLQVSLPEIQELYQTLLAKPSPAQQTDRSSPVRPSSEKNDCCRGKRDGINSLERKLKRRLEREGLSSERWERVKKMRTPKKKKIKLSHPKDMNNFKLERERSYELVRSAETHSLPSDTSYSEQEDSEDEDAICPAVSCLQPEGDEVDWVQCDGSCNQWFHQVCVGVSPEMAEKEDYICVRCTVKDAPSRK
# UniProt P83916, sequence (P83916 whole entry, looked up): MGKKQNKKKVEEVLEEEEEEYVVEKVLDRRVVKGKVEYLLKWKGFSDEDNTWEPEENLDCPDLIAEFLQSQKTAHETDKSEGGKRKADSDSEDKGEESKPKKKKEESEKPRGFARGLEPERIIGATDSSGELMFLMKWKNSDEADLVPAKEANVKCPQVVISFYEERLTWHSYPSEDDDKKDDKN
compound,measurement,setting,value
C[N+](C)(C)CCOC(N)=O,"activity change, negative = inhibition",[1],inconclusive: 39.3% [activator]
same,Potency,[2],"inconclusive: 1.26 µM [activator, full curve, poor fit] and inconclusive: 6 µM [activator, partial curve, poor fit]"
same,Potency,[3],inactive
same,Potency,[4],inactive
same,Potency,[5],inactive
same,Potency,[6],inactive
same,Potency,[7],inactive
COc1cc(N)c(Cl)cc1C(=O)NC1CCN(Cc2ccccc2)CC1,Potency,[8],inactive
CN1CCC(OC(c2ccccc2)c2ccccc2)CC1,Potency,CP252,"inconclusive: 4.47 µM [inhibitor, partial curve]"
CCO/C([O-])=N/c1c[n+](N2CCOCC2)no1,Potency,[9],"inconclusive: 7.94 µM [inhibitor, full curve, poor fit]"
same,Potency,[10],"inconclusive: 10 µM [inhibitor, partial curve, poor fit]"
same,Potency,[11],inactive
same,Potency,[12],inactive
same,Potency,[13],"inconclusive: 6.57 µM [activator, partial curve, poor fit]"
N#Cc1cccc(-c2c[nH]c3ncnc(N4CCOCC4)c23)c1,Potency,[14],inactive
same,Potency,[15],active: 39.8 µM
O=C(O)CP(=O)(O)O,Potency,[9],inactive
same,Potency,[10],"inconclusive: 0.355 µM [inhibitor, full curve, poor fit]"
same,Potency,[11],"inconclusive: 11.2 µM [inhibitor, single point]"
same,Potency,[12],inactive
same,Potency,[13],"inconclusive: 18.5 µM [inhibitor, single point]"
same,Potency,CP252,inactive
COc1ccc(Cl)c(Nc2nc3ccccc3nc2NS(=O)(=O)c2cccc(NC(=O)C(C)(C)N)c2)c1,Potency,Furin (Homo sapiens),"inconclusive: 8.57 µM [inhibitor, full curve, poor fit]"
same,Potency,[16],"inconclusive: 11.1 µM [inhibitor, full curve]"
C=C1C2CCC3C(CCC4[C@@]3(C)CCC[C@@]4(C)C(=O)O)(C2)[C@@H]1OC(=O)/C(C)=C\C (some centres not stated),Potency,Furin (Homo sapiens),inactive
same,Potency,[16],"inconclusive: 21.5 µM [inhibitor, partial curve]"
CC(=O)OCC(COC(C)=O)OC(C)=O,Potency,[17],inactive
OC[C@H]1O[C@@H]2O[C@H]3[C@H](O)[C@@H](O)[C@@H](O[C@H]4[C@H](O)[C@@H](O)[C@@H](O[C@H]5[C@H](O)[C@@H](O)[C@@H](O[C@H]6[C@H](O)[C@@H](O)[C@@H](O[C@H]7[C@H](O)[C@@H](O)[C@@H](O[C@H]8[C@H](O)[C@@H](O)[C@@H](O[C@H]1[C@H](O)[C@H]2O)O[C@@H]8CO)O[C@@H]7CO)O[C@@H]6CO)O[C@@H]5CO)O[C@@H]4CO)O[C@@H]3CO,activation,[17],inconclusive: -16.5%
O=C(c1ccc(/C=C/c2n[nH]c3ccccc23)cc1)N1CCNCC1,Potency,[14],"inconclusive: 3.3 µM [inhibitor, full curve]"
same,Potency,[15],"inconclusive: 44.7 µM [inhibitor, partial curve]"
same,Potency,[18]; HiBiT,"inconclusive: 14 µM [inhibitor, partial curve]"
same,Potency,[18]; Viability,"inconclusive: 14 µM [cytotoxic, partial curve]"
